For assay [1], the target named is T1, HA-tagged VAV2 (UniProt P52735).
T1 sequence: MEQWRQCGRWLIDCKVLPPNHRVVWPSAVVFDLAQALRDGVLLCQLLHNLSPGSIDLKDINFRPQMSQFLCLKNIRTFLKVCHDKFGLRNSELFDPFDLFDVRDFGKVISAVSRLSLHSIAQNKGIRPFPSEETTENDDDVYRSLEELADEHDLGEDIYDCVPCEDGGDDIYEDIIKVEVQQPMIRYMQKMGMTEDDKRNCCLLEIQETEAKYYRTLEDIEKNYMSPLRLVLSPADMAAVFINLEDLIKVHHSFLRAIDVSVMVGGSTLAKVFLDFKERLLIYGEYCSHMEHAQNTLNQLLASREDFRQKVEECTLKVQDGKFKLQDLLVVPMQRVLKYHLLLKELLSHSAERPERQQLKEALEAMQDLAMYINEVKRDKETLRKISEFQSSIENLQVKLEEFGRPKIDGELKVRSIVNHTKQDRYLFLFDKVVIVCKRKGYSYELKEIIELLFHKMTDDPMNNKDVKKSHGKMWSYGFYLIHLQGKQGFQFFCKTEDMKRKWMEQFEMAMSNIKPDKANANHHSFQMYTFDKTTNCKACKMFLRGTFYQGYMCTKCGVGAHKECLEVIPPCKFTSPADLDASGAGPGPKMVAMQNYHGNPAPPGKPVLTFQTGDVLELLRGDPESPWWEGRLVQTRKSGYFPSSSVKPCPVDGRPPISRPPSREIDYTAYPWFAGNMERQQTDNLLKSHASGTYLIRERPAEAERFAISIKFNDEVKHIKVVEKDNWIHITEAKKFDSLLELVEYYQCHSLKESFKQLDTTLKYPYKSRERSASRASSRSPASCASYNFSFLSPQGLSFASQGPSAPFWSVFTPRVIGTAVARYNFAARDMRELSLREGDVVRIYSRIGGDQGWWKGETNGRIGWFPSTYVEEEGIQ
The assay can be described thus: co-IP; HEK293 cells co-transfected with the two tagged proteins; Triton X-100 lysis buffer (50 mM Tris-HCl pH 7.8, 150 mM NaCl, 1% Triton X-100); 0.5 mg total protein, 1 ug anti-myc or anti-HA antibody overnight at 4°C, protein G-Sepharose; immunoblot with anti-myc and anti-HA.

The chains behind the UniProt entries cited, without tags or fusion partners. Where a name states a change or a piece, a line headed by the entry shows the natural chain unless it says otherwise. A line that says so, or that is headed by a name, gives the form on record, which may keep a tag or linker.
UniProt Q9Y6E0: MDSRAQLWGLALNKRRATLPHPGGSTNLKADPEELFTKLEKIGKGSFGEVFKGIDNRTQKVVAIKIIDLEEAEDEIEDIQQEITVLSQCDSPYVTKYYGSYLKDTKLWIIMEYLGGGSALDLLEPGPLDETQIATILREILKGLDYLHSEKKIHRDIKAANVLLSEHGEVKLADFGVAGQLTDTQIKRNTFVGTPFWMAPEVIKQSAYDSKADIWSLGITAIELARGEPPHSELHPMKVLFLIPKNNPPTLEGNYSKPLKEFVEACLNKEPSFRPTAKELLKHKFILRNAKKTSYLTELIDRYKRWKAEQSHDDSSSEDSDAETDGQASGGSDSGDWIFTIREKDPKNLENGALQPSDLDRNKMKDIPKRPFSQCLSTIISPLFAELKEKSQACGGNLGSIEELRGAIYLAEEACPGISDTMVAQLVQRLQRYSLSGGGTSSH
Wild-type MST3-HA (Q9Y6E0-2, form named): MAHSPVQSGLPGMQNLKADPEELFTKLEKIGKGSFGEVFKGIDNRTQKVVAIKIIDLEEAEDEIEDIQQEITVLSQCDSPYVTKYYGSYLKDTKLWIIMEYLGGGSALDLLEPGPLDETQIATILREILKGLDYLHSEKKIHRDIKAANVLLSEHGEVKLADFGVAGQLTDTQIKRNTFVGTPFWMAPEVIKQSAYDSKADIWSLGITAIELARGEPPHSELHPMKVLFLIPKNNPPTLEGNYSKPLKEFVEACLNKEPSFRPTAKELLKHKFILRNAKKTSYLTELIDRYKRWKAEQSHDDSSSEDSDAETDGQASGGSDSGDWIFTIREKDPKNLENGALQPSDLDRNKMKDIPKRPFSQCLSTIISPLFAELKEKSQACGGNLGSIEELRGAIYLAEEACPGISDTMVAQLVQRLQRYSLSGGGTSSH

In assay [2] the target is myc-tagged MST3 (mammalian STE20-like kinase 3) (UniProt Q9Y6E0). The assay is described as above.
For assay [3], the target named is Endogenous MST3 (human (endogenous in MDA-MB-231)) (UniProt Q9Y6E0). The assay can be described thus: co-IP; endogenous proteins; 1 mg total protein from MDA-MB-231 cells, 1 ug anti-MST3 antibody, protein G-Sepharose; immunoblot with anti-MST3 or anti-VAV2. Background: Immunoblotting shows a protein as a band on a membrane.
Assay [4] concerns the target Purified recombinant MST3 (baculovirus-expressed) (UniProt Q9Y6E0). The assay can be described thus: co-IP; in vitro pull-down: 0.5 ug baculovirus-expressed MST3 and 1 ug recombinant VAV2 mixed in 100 ul PBS with protease inhibitors, room temperature 10 min; 0.5 ug anti-MST3 monoclonal antibody 3 hr at 4°C, protein G-Sepharose; washed with Triton X-100 lysis buffer; both purified.

Assay [5] deals with Wild-type MST3-HA (UniProt Q9Y6E0). The assay is described as follows: co-IP; HEK293 cells co-transfected with the two tagged proteins; Triton X-100 lysis buffer (50 mM Tris-HCl pH 7.8, 150 mM NaCl, 1% Triton X-100); 0.5 mg total protein, 1 ug anti-myc or anti-HA antibody overnight at 4°C, protein G-Sepharose; immunoblot with anti-myc and anti-HA.

This passage reports binding results from PMC4924737.

No constants are given. Whether binding was seen depends on the method and setting. For part of these data: In cells and extracts the contact can be indirect. Some results given as binding are weak or reduced against the parent protein; the word gives no strength. For part of these data: Sequences can lack the tags named with a protein.

As for “myc-tagged MST3 (mammalian STE20-like kinase 3) (from UniProt Q9Y6E0-2 1-431)”, the binding entry in assay [1] was “binds”.

B1: HA-tagged VAV3 (protein, UniProt Q9UKW4 1-847)
chain: MEPWKQCAQWLIHCKVLPTNHRVTWDSAQVFDLAQTLRDGVLLCQLLNNLRAHSINLKEINLRPQMSQFLCLKNIRTFLTACCETFGMRKSELFEAFDLFDVRDFGKVIETLSRLSRTPIALATGIRPFPTEESINDEDIYKGLPDLIDETLVEDEEDLYDCVYGEDEGGEVYEDLMKAEEAHQPKCPENDIRSCCLAEIKQTEEKYTETLESIEKYFMAPLKRFLTAAEFDSVFINIPELVKLHRNLMQEIHDSIVNKNDQNLYQVFINYKERLVIYGQYCSGVESAISSLDYISKTKEDVKLKLEECSKRANNGKFTLRDLLVVPMQRVLKYHLLLQELVKHTTDPTEKANLKLALDAMKDLAQYVNEVKRDNETLREIKQFQLSIENLNQPVLLFGRPQGDGEIRITTLDKHTKQERHIFLFDLAVIVCKRKGDNYEMKEIIDLQQYKIANNPTTDKENKKWSYGFYLIHTQGQNGLEFYCKTKDLKKKWLEQFEMALSNIRPDYADSNFHDFKMHTFTRVTSCKVCQMLLRGTFYQGYLCFKCGARAHKECLGRVDNCGRVNSGEQGTLKLPEKRTNGLRRTPKQVDPGLPKMQVIRNYSGTPPPALHEGPPLQLQAGDTVELLKGDAHSLFWQGRNLASGEVGFFPSDAVKPCPCVPKPVDYSCQPWYAGAMERLQAETELINRVNSTYLVRHRTKESGEYAISIKYNNEAKHIKILTRDGFFHIAENRKFKSLMELVEYYKHHSLKEGFRTLDTTLQFPYKEPEHSAGQRGNRAGNSLLSPKVLGIAIARYDFCARDMRELSLLKGDVVKIYTKMSANGWWRGEVNGRVGWFPSTYVEEDE
B1: in assay [2], the binding entry is recorded as “no binding”.

B2: HA-tagged VAV2 (protein, UniProt P52735 1-878)
chain: MEQWRQCGRWLIDCKVLPPNHRVVWPSAVVFDLAQALRDGVLLCQLLHNLSPGSIDLKDINFRPQMSQFLCLKNIRTFLKVCHDKFGLRNSELFDPFDLFDVRDFGKVISAVSRLSLHSIAQNKGIRPFPSEETTENDDDVYRSLEELADEHDLGEDIYDCVPCEDGGDDIYEDIIKVEVQQPMIRYMQKMGMTEDDKRNCCLLEIQETEAKYYRTLEDIEKNYMSPLRLVLSPADMAAVFINLEDLIKVHHSFLRAIDVSVMVGGSTLAKVFLDFKERLLIYGEYCSHMEHAQNTLNQLLASREDFRQKVEECTLKVQDGKFKLQDLLVVPMQRVLKYHLLLKELLSHSAERPERQQLKEALEAMQDLAMYINEVKRDKETLRKISEFQSSIENLQVKLEEFGRPKIDGELKVRSIVNHTKQDRYLFLFDKVVIVCKRKGYSYELKEIIELLFHKMTDDPMNNKDVKKSHGKMWSYGFYLIHLQGKQGFQFFCKTEDMKRKWMEQFEMAMSNIKPDKANANHHSFQMYTFDKTTNCKACKMFLRGTFYQGYMCTKCGVGAHKECLEVIPPCKFTSPADLDASGAGPGPKMVAMQNYHGNPAPPGKPVLTFQTGDVLELLRGDPESPWWEGRLVQTRKSGYFPSSSVKPCPVDGRPPISRPPSREIDYTAYPWFAGNMERQQTDNLLKSHASGTYLIRERPAEAERFAISIKFNDEVKHIKVVEKDNWIHITEAKKFDSLLELVEYYQCHSLKESFKQLDTTLKYPYKSRERSASRASSRSPASCASYNFSFLSPQGLSFASQGPSAPFWSVFTPRVIGTAVARYNFAARDMRELSLREGDVVRIYSRIGGDQGWWKGETNGRIGWFPSTYVEEEGIQ
On to B2, for which, in assay [2], the binding entry is reported as “binds”.

B3: Endogenous VAV2 (protein, UniProt P52735 1-878)
chain: MEQWRQCGRWLIDCKVLPPNHRVVWPSAVVFDLAQALRDGVLLCQLLHNLSPGSIDLKDINFRPQMSQFLCLKNIRTFLKVCHDKFGLRNSELFDPFDLFDVRDFGKVISAVSRLSLHSIAQNKGIRPFPSEETTENDDDVYRSLEELADEHDLGEDIYDCVPCEDGGDDIYEDIIKVEVQQPMIRYMQKMGMTEDDKRNCCLLEIQETEAKYYRTLEDIEKNYMSPLRLVLSPADMAAVFINLEDLIKVHHSFLRAIDVSVMVGGSTLAKVFLDFKERLLIYGEYCSHMEHAQNTLNQLLASREDFRQKVEECTLKVQDGKFKLQDLLVVPMQRVLKYHLLLKELLSHSAERPERQQLKEALEAMQDLAMYINEVKRDKETLRKISEFQSSIENLQVKLEEFGRPKIDGELKVRSIVNHTKQDRYLFLFDKVVIVCKRKGYSYELKEIIELLFHKMTDDPMNNKDVKKSHGKMWSYGFYLIHLQGKQGFQFFCKTEDMKRKWMEQFEMAMSNIKPDKANANHHSFQMYTFDKTTNCKACKMFLRGTFYQGYMCTKCGVGAHKECLEVIPPCKFTSPADLDASGAGPGPKMVAMQNYHGNPAPPGKPVLTFQTGDVLELLRGDPESPWWEGRLVQTRKSGYFPSSSVKPCPVDGRPPISRPPSREIDYTAYPWFAGNMERQQTDNLLKSHASGTYLIRERPAEAERFAISIKFNDEVKHIKVVEKDNWIHITEAKKFDSLLELVEYYQCHSLKESFKQLDTTLKYPYKSRERSASRASSRSPASCASYNFSFLSPQGLSFASQGPSAPFWSVFTPRVIGTAVARYNFAARDMRELSLREGDVVRIYSRIGGDQGWWKGETNGRIGWFPSTYVEEEGIQ
As to B3, the binding result in assay [3] was “binds”.

B4: Purified recombinant VAV2 protein (OriGene) (protein, UniProt P52735 1-878)
chain: MEQWRQCGRWLIDCKVLPPNHRVVWPSAVVFDLAQALRDGVLLCQLLHNLSPGSIDLKDINFRPQMSQFLCLKNIRTFLKVCHDKFGLRNSELFDPFDLFDVRDFGKVISAVSRLSLHSIAQNKGIRPFPSEETTENDDDVYRSLEELADEHDLGEDIYDCVPCEDGGDDIYEDIIKVEVQQPMIRYMQKMGMTEDDKRNCCLLEIQETEAKYYRTLEDIEKNYMSPLRLVLSPADMAAVFINLEDLIKVHHSFLRAIDVSVMVGGSTLAKVFLDFKERLLIYGEYCSHMEHAQNTLNQLLASREDFRQKVEECTLKVQDGKFKLQDLLVVPMQRVLKYHLLLKELLSHSAERPERQQLKEALEAMQDLAMYINEVKRDKETLRKISEFQSSIENLQVKLEEFGRPKIDGELKVRSIVNHTKQDRYLFLFDKVVIVCKRKGYSYELKEIIELLFHKMTDDPMNNKDVKKSHGKMWSYGFYLIHLQGKQGFQFFCKTEDMKRKWMEQFEMAMSNIKPDKANANHHSFQMYTFDKTTNCKACKMFLRGTFYQGYMCTKCGVGAHKECLEVIPPCKFTSPADLDASGAGPGPKMVAMQNYHGNPAPPGKPVLTFQTGDVLELLRGDPESPWWEGRLVQTRKSGYFPSSSVKPCPVDGRPPISRPPSREIDYTAYPWFAGNMERQQTDNLLKSHASGTYLIRERPAEAERFAISIKFNDEVKHIKVVEKDNWIHITEAKKFDSLLELVEYYQCHSLKESFKQLDTTLKYPYKSRERSASRASSRSPASCASYNFSFLSPQGLSFASQGPSAPFWSVFTPRVIGTAVARYNFAARDMRELSLREGDVVRIYSRIGGDQGWWKGETNGRIGWFPSTYVEEEGIQ
B4: the binding entry in assay [4] is given as “binds”.

B5: 1-580-VAV2-myc (domain or fragment, UniProt P52735 1-580)
chain: MEQWRQCGRWLIDCKVLPPNHRVVWPSAVVFDLAQALRDGVLLCQLLHNLSPGSIDLKDINFRPQMSQFLCLKNIRTFLKVCHDKFGLRNSELFDPFDLFDVRDFGKVISAVSRLSLHSIAQNKGIRPFPSEETTENDDDVYRSLEELADEHDLGEDIYDCVPCEDGGDDIYEDIIKVEVQQPMIRYMQKMGMTEDDKRNCCLLEIQETEAKYYRTLEDIEKNYMSPLRLVLSPADMAAVFINLEDLIKVHHSFLRAIDVSVMVGGSTLAKVFLDFKERLLIYGEYCSHMEHAQNTLNQLLASREDFRQKVEECTLKVQDGKFKLQDLLVVPMQRVLKYHLLLKELLSHSAERPERQQLKEALEAMQDLAMYINEVKRDKETLRKISEFQSSIENLQVKLEEFGRPKIDGELKVRSIVNHTKQDRYLFLFDKVVIVCKRKGYSYELKEIIELLFHKMTDDPMNNKDVKKSHGKMWSYGFYLIHLQGKQGFQFFCKTEDMKRKWMEQFEMAMSNIKPDKANANHHSFQMYTFDKTTNCKACKMFLRGTFYQGYMCTKCGVGAHKECLEVIPPCKFTSPADL
For B5, the binding entry in assay [5] is “no binding”.
